# Out of some 45,000 compounds screened, about 200 (0.44%) were called active. Not shown: some 7% with an inconclusive outcome. The call rests on the fitted dose curve; in most records, active means well fitted activation curve with a large enough effect; inconclusive means small, poorly fitted or top-dose-only effect; inactive means no such curve, though single readings can be large or run the other way. The list shows a part of the results. Peptide text beside a SMILES is read from it. * marks the point of attachment. Boc = CC(C)(C)OC(=O)*
# Experiment: qHTS of TDP-43 Inhibitors: NCGC Sytravon Library Screen; further: 0% is about no effect; nearly all actives have a fitted effect of over 55% in size
# Conditions: yeast TDP-43 toxicity rescue, BacTiter-Glo growth, 24 h; series mostly up to 46.1 µM; growth rescue (activation): at the top concentration
# Outline: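 TDP-43-expressing yeast, pregrown in raffinose, seeded at OD600 0.02 in galactose medium with compound for 24 hr at 30 deg C. Growth read by BacTiter-Glo luminescence, so rescue of toxicity appears as activation.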
row,SMILES,growth rescue (activation)
1,Cc1ccc([N+](=O)[O-])cc1S(=O)(=O)Nc1cccc(S(=O)(=O)NC2=NCCC2)c1,inactive: 6.73%
2,CC(C)n1nc(C(=O)Nc2ccc(-n3cnnn3)cc2)c2ccccc2c1=O,inactive: 4.06%
3,COc1cccc(NC(=O)Cn2c(CCC(=O)O)ccc2-c2cccs2)c1,inactive: -8.95%
4,Cc1cc(C(=O)CSc2nnc(-c3ccco3)o2)c(C)n1C,inactive: 7.27%
5,Cc1nn(-c2ccc([N+](=O)[O-])cc2)c2c1C(c1cccc(Br)c1)N1C(=N2)C(=O)Nc2ccccc21 (configuration not stated),inactive: 11.7%
6,CCCc1nc(C)cc(N2CCN(c3ccccc3)CC2)n1,inactive: -9.94%
7,O=C(NCCCN1CCOCC1)c1nn2c(C(F)(F)F)cc(-c3ccco3)nc2c1Cl,inactive: -7.81%
8,Cc1ccccc1OCCOC(=O)c1c(-c2ccccc2)noc1C,inactive: 19%
9,CCOC(=O)c1cc(NC(=O)COc2ccc([N+](=O)[O-])cc2)cc(C(=O)OCC)c1,inactive: -24.9%
10,CCCCc1c(C)nc2c(OC)cccc2c1SCC(=O)O,inactive: -3.64%
11,COC(=O)C(CC(C)C)NC(=O)/C=C/c1ccccc1Cl (configuration not stated),inactive: 2.13%
12,COc1ccc2oc(C(F)(F)C(F)(F)F)cc(=O)c2c1,inactive: 36.8%
13,Nc1ccc(NC(=O)c2ccco2)c(Cl)c1,inactive: 4.65%
14,Cc1ccc(NC(=O)c2ccco2)c(NC(=O)COc2ccccc2)c1,inactive: 21.4%
15,O=C(Nc1ccc(NC(=O)c2ccc3c(c2)OCCO3)cc1)c1ccccc1,inactive: 2.86%
16,CCn1nnnc1SCC(=O)Nc1ccc(F)cc1,inactive: -23.8%
17,CCOc1ccccc1N1CC(C(=O)N2CCOCC2)CC1=O (configuration not stated),inactive: 14.9%
18,COc1ccc(NC(=O)C2CCN(C(=O)c3ccco3)CC2)c(OC)c1,inactive: 7.71%
19,O=C1c2ccccc2NC(c2cccs2)N1NS(=O)(=O)c1ccccc1 (configuration not stated),inactive: -5.17%
20,O=c1cc(-c2ccccc2)nc(SCc2ccc(Cl)cc2)[nH]1,inactive: -24.4%
21,CC(OC(=O)c1cc2c(s1)CCCCC2)C(=O)NC(N)=O (configuration not stated),inactive: 8.06%
22,CCCCCn1c(=O)[nH]c2cc(C(=O)NCc3ccccn3)ccc2c1=O,inactive: 4.2%
23,COc1ccc(N2CCN(C(=O)C34CCC(C)(C(=O)C3)C4(C)C)CC2)cc1 (configuration not stated),inactive: 3.61%

row,SMILES,growth rescue (activation)
1,NC(=NC1CCCCC1)c1ccc(Cl)cc1,inactive: -4.36%
2,CCCCNC(=O)CSc1nc(N)c(C(=O)Nc2ccc(OC)cc2)s1,inactive: -3.68%
3,COc1cc2c(c(OC)c1OC)-c1ccc(OC)c(=O)cc1[C@@H](N(C)CC#CCO)CC2,inactive: 7.6%
4,COc1cc(S(=O)(=O)N2CCCCC2)ccc1NC(=O)c1ccncc1,inactive: 3.78%
5,CN1C/C(=C/c2ccsc2)C(=O)/C(=C/c2ccsc2)C1,inactive: -2.38%
6,CC(=O)Nc1ccc(SCC(=O)N2CCN(S(=O)(=O)c3ccccc3)CC2)cc1,inactive: -2.54%
7,Cc1cc(NC(=O)C2C3C(=O)N(Cc4ccc(Cl)cc4)C(C(=O)NCc4ccccc4)C34C=CC2(C)O4)no1 (configuration not stated),inactive: -2.59%
8,O=C(NCc1cccs1)c1ccc([N+](=O)[O-])cc1,inactive: 7.63%
9,CC(=O)NC1C(=O)N(CCN2CCOCC2)c2ccc(Cl)cc21 (configuration not stated),inactive: -16.5%
10,Cc1ccc(NC(=O)C2CC(O)CN2C(=O)Oc2ccccc2)c(C)c1 (configuration not stated),inactive: -4.09%
11,COc1ccccc1NS(=O)(=O)c1cccc(NC(=O)Nc2ccc(Cl)cc2)c1,inactive: 2.23%
12,COc1ccc(S(=O)(=O)NCCc2ccccn2)cc1,inactive: 2.55%
13,COc1ccc(N(CC(=O)N2CCN(c3ccccc3F)CC2)S(=O)(=O)c2c(C)n[nH]c2C)cc1,inactive: -7%
14,CC(C)NC(=O)C1(C)CCN1C/C=C/c1ccccc1 (configuration not stated),inactive: -0.999%
15,COc1ccc(C(CCNCc2ccc(N(C)C)cc2)c2ccccc2)cc1 (configuration not stated),inactive: 4.16%
16,CS(=O)(=O)N(Cc1ccc(Cl)cc1)c1ccc(C(=O)NCC2CCCO2)cc1 (configuration not stated),inactive: -4.54%
17,CC1CC(=O)NN1C(=O)c1ccccc1 (configuration not stated),inactive: -16.7%
18,CC(C)(C)CN1CCNC(=O)C1CC(=O)N1CCOc2ccccc2C1 (configuration not stated),inactive: -20.3%
19,Nc1cc(S(=O)(=O)N2CCCCC2)ccc1Oc1ccccc1,inactive: 14.7%
20,O=C(COc1ccccc1F)Nc1cc(S(=O)(=O)N2CCOCC2)ccc1N1CCOCC1,inactive: 8.42%
21,O=C(Nc1nc(-c2cccc([N+](=O)[O-])c2)cs1)c1cccc([N+](=O)[O-])c1C(=O)O,inactive: -6.35%
22,O=C(COC(=O)c1cccc(S(=O)(=O)NCc2ccccc2)c1)NC1CC1,inactive: 4.54%
23,COc1ccc(C)cc1S(=O)(=O)NC1CCCCC1C (configuration not stated),inactive: 17.3%

row,SMILES,growth rescue (activation)
1,COc1ccc(Nc2ccc(N3C(=O)CC(C)C3=O)cc2[N+](=O)[O-])cc1OC (configuration not stated),inactive: 7.17%
2,C=CCOc1ccccc1CNc1cccc(F)c1,inactive: 11.1%
3,CCOc1cc(/C=N/Nc2nc(-c3cccs3)c(NC(C)=O)s2)ccc1O,inactive: -9.52%
4,CC(=C/c1ccco1)/C=N/NC(=O)Cc1cccn1C,inactive: 17.2%
5,O=C(NCC(c1ccc(F)cc1)N1CCOCC1)c1ccccc1F (configuration not stated),inactive: 27.1%
6,Cc1cc(C)n(-c2nc(NCCN(C)C)c3c4c(sc3n2)COC(C)(C)C4)n1,inactive: -16.5%
7,CCC(C)(C)C1CCc2[nH]nc(C(=O)N/N=C(\C)c3ccco3)c2C1 (configuration not stated),inactive: -0.206%
8,CN1CCC(=NNC(=O)C(=O)NC2CCCC2)CC1,inactive: 33.9%
9,CSc1cc(-c2ccccc2)n(C)c(=O)c1C#N,inactive: 20.1%
10,CCOc1ccc(-n2cc(C(=O)NCc3ccco3)c3cc(OC)c(OC)cc3c2=O)cc1,inactive: 27.1%
11,CCC(C)C(NC(=O)OC(C)(C)C)C(=O)NC(CC(C)C)C(N)=O (stereo not drawn) (Boc-Ile-Leu-NH2; configuration not given here),inactive: -8.71%
12,CCCCOc1ccc(-c2c(C(=O)Nc3ccccc3)c(C)[nH]c(=S)c2C#N)cc1,inactive: 2.75%
13,COc1cc(OC)cc(C(=O)Nc2ccc3oc(-c4cccc5c(Br)cccc45)nc3c2)c1,inactive: 5.02%
14,Cc1nc(C)n(CC(C)C(=O)N2CCN(S(=O)(=O)c3ccc(Cl)cc3)CC2)n1 (configuration not stated),inactive: -15%
15,COc1cc(NC(=O)c2ccc(Cl)cc2Cl)ccc1NC(=O)c1cccs1,inactive: 20.6%
16,N/C(=N\c1nc2ccccc2o1)NC(=O)c1ccccc1,inactive: 41.7%
17,Cc1nn(CC(C)C)c(Cl)c1C(=O)N(c1ccc(Cl)cc1F)S(C)(=O)=O,inactive: 2.98%
18,CN(c1ccccc1)S(=O)(=O)c1ccc(Cl)c(C(=O)OCC(N)=O)c1,inactive: 4.72%
19,COc1ccc(C(=O)Nc2cccc(C(=O)N3CCCCC3)c2)cc1,inactive: 17.5%
20,O=C(CCn1c(=O)oc2ccccc21)NCCCN1CCOCC1,inactive: 6.36%
21,CCCS(=O)(=O)c1nc(S(=O)(=O)c2ccc(C)cc2)c(NCc2ccccc2)s1,inactive: -9.89%

# — PubChem BioAssay AID1347073 (National Center for Advancing Translational Sciences (NCATS), 2019)
